Measurements taken from US20240076343A1.

What was measured:
Experiment in all cases: cell-based or functional assay
[1] = biological target: intermediate affinity hIL-2 receptor (hIL-2Rβγ) on TF1+IL-2Rβ cells (human) (UniProt P14784)
[2] = biological target: high-affinity hIL-2 receptor (IL-2Rαβγ) on NK-92 cells (human) (UniProt P01589)
[3] = biological target: high-affinity hIL-2 receptor (IL-2Rαβγ) (human) (UniProt P01589)
[4] = biological target: intermediate affinity hIL-2 receptor complex (IL-2Rβγ) on TF1+IL-2Rβ cells (human) (UniProt P14784)
[5] = biological target: intermediate affinity hIL-2 receptor complex (IL-2Rβγ) (human) (UniProt P14784)

Binder	Fold change from rhIL-2 (TF1 + IL-2Rβ) [1] [fold]	Fold change from hIL-2 (NK-92) [2] [fold]	Fold change from rhIL-2 (NK-92) [2] [fold]	Agonistic Activity (NK-92), pSTAT5 titration [3] [%]	Fold change from rhIL-2 (NK-92), pSTAT5 titration [3] [fold]	Fold change from hIL-2 (TF1 + IL-2Rβ) [4] [fold]	Agonistic Activity (TF1 + IL-2Rβ), pSTAT5 titration [5] [%]	Fold change from rhIL-2 (TF1 + IL-2Rβ), pSTAT5 titration [5] [fold]	Agonistic Activity (NK-92) [2] [%]	Agonistic Activity (TF1 + IL-2Rβ) [1] [%]
1H3-hIgG1-L6-hIL-2 (R38E/E61R/D20A) (protein) heavy: EVQLVESGGGLVQPGRSLKLSCAVSGFTFSDYAMAWVRQAPKKGLEWVATISYDGSRTYYRDSVKGRFTISRDNAKITLYLQMDSLRSEDTATYYCARHGSGYFDYWGQGVMVTVSS[not shown - human IgG1 constant region]SGGGGSAPTSSSTKKTQLQLEHLLLALQMILNGINNYKNPKLTEMLTFKFYMPKKATELKHLQCLERELKPLEEVLNLAQSKNFHLRPRDLISNINVIVLELKGSETTFMCEYADETATIVEFLNRWITFCQSIISTLT light: DTVLTQSPALAVSPGERVTISCRASESVRTGVHWYQQKPGQQPKLLIYGASNLESGVPARFSGSGSGTDFTLTIDPVEADDTATYFCQQSWNDPFTFGSGTKLEIKRTVAAPSVFIFPPSDEQLKSGTASVVCLLNNFYPREAKVQWKVDNALQSGNSQESVTEQDSKDSTYSLSSTLTLSKADYEKHKVYACEVTHQGLSSPVTKSFNRGEC	417	11	> 10000	90	> 10000	3	60	181	–	–
1H3-hIgG1-L6-hIL-2 (R38Q/E61R/D20A) (protein) heavy: EVQLVESGGGLVQPGRSLKLSCAVSGFTFSDYAMAWVRQAPKKGLEWVATISYDGSRTYYRDSVKGRFTISRDNAKITLYLQMDSLRSEDTATYYCARHGSGYFDYWGQGVMVTVSS[not shown - human IgG1 constant region]SGGGGSAPTSSSTKKTQLQLEHLLLALQMILNGINNYKNPKLTQMLTFKFYMPKKATELKHLQCLERELKPLEEVLNLAQSKNFHLRPRDLISNINVIVLELKGSETTFMCEYADETATIVEFLNRWITFCQSIISTLT light: DTVLTQSPALAVSPGERVTISCRASESVRTGVHWYQQKPGQQPKLLIYGASNLESGVPARFSGSGSGTDFTLTIDPVEADDTATYFCQQSWNDPFTFGSGTKLEIKRTVAAPSVFIFPPSDEQLKSGTASVVCLLNNFYPREAKVQWKVDNALQSGNSQESVTEQDSKDSTYSLSSTLTLSKADYEKHKVYACEVTHQGLSSPVTKSFNRGEC	803	12	> 10000	40	> 10000	3	80	115	80	–
1H3-hIgG1-L6-hIL-2 (R38A/E61R/D20A) (protein) heavy: EVQLVESGGGLVQPGRSLKLSCAVSGFTFSDYAMAWVRQAPKKGLEWVATISYDGSRTYYRDSVKGRFTISRDNAKITLYLQMDSLRSEDTATYYCARHGSGYFDYWGQGVMVTVSS[not shown - human IgG1 constant region]SGGGGSAPTSSSTKKTQLQLEHLLLALQMILNGINNYKNPKLTAMLTFKFYMPKKATELKHLQCLERELKPLEEVLNLAQSKNFHLRPRDLISNINVIVLELKGSETTFMCEYADETATIVEFLNRWITFCQSIISTLT light: DTVLTQSPALAVSPGERVTISCRASESVRTGVHWYQQKPGQQPKLLIYGASNLESGVPARFSGSGSGTDFTLTIDPVEADDTATYFCQQSWNDPFTFGSGTKLEIKRTVAAPSVFIFPPSDEQLKSGTASVVCLLNNFYPREAKVQWKVDNALQSGNSQESVTEQDSKDSTYSLSSTLTLSKADYEKHKVYACEVTHQGLSSPVTKSFNRGEC	1030	13	> 10000	40	> 10000	3	60	130	60	–
1H3-hIgG1-L6-hIL-2 (D20A/E95A/R38A) (protein) heavy: EVQLVESGGGLVQPGRSLKLSCAVSGFTFSDYAMAWVRQAPKKGLEWVATISYDGSRTYYRDSVKGRFTISRDNAKITLYLQMDSLRSEDTATYYCARHGSGYFDYWGQGVMVTVSS[not shown - human IgG1 constant region]SGGGGSAPTSSSTKKTQLQLEHLLLALQMILNGINNYKNPKLTAMLTFKFYMPKKATELKHLQCLEEELKPLEEVLNLAQSKNFHLRPRDLISNINVIVLALKGSETTFMCEYADETATIVEFLNRWITFCQSIISTLT light: DTVLTQSPALAVSPGERVTISCRASESVRTGVHWYQQKPGQQPKLLIYGASNLESGVPARFSGSGSGTDFTLTIDPVEADDTATYFCQQSWNDPFTFGSGTKLEIKRTVAAPSVFIFPPSDEQLKSGTASVVCLLNNFYPREAKVQWKVDNALQSGNSQESVTEQDSKDSTYSLSSTLTLSKADYEKHKVYACEVTHQGLSSPVTKSFNRGEC	537	6	42	70 to 80	–	5	70	157	70	80
1H3-hIgG1-L6-hIL-2 (D20A/E95A/F42R) (protein) heavy: EVQLVESGGGLVQPGRSLKLSCAVSGFTFSDYAMAWVRQAPKKGLEWVATISYDGSRTYYRDSVKGRFTISRDNAKITLYLQMDSLRSEDTATYYCARHGSGYFDYWGQGVMVTVSS[not shown - human IgG1 constant region]SGGGGSAPTSSSTKKTQLQLEHLLLALQMILNGINNYKNPKLTRMLTRKFYMPKKATELKHLQCLEEELKPLEEVLNLAQSKNFHLRPRDLISNINVIVLALKGSETTFMCEYADETATIVEFLNRWITFCQSIISTLT light: DTVLTQSPALAVSPGERVTISCRASESVRTGVHWYQQKPGQQPKLLIYGASNLESGVPARFSGSGSGTDFTLTIDPVEADDTATYFCQQSWNDPFTFGSGTKLEIKRTVAAPSVFIFPPSDEQLKSGTASVVCLLNNFYPREAKVQWKVDNALQSGNSQESVTEQDSKDSTYSLSSTLTLSKADYEKHKVYACEVTHQGLSSPVTKSFNRGEC	356	21	2100	70	> 10000	4	60	87	70	70
1H3-hIgG1-L6-hIL-2 (D20A/E95A/F42D) (protein) heavy: EVQLVESGGGLVQPGRSLKLSCAVSGFTFSDYAMAWVRQAPKKGLEWVATISYDGSRTYYRDSVKGRFTISRDNAKITLYLQMDSLRSEDTATYYCARHGSGYFDYWGQGVMVTVSS[not shown - human IgG1 constant region]SGGGGSAPTSSSTKKTQLQLEHLLLALQMILNGINNYKNPKLTRMLTDKFYMPKKATELKHLQCLEEELKPLEEVLNLAQSKNFHLRPRDLISNINVIVLALKGSETTFMCEYADETATIVEFLNRWITFCQSIISTLT light: DTVLTQSPALAVSPGERVTISCRASESVRTGVHWYQQKPGQQPKLLIYGASNLESGVPARFSGSGSGTDFTLTIDPVEADDTATYFCQQSWNDPFTFGSGTKLEIKRTVAAPSVFIFPPSDEQLKSGTASVVCLLNNFYPREAKVQWKVDNALQSGNSQESVTEQDSKDSTYSLSSTLTLSKADYEKHKVYACEVTHQGLSSPVTKSFNRGEC	> 10000	22	> 10000	10	> 10000	12	30	1450	–	–
1H3-hIgG1-L6-hIL-2 (D20A/E95A/F42H) (protein) heavy: EVQLVESGGGLVQPGRSLKLSCAVSGFTFSDYAMAWVRQAPKKGLEWVATISYDGSRTYYRDSVKGRFTISRDNAKITLYLQMDSLRSEDTATYYCARHGSGYFDYWGQGVMVTVSS[not shown - human IgG1 constant region]SGGGGSAPTSSSTKKTQLQLEHLLLALQMILNGINNYKNPKLTRMLTHKFYMPKKATELKHLQCLEEELKPLEEVLNLAQSKNFHLRPRDLISNINVIVLALKGSETTFMCEYADETATIVEFLNRWITFCQSIISTLT light: DTVLTQSPALAVSPGERVTISCRASESVRTGVHWYQQKPGQQPKLLIYGASNLESGVPARFSGSGSGTDFTLTIDPVEADDTATYFCQQSWNDPFTFGSGTKLEIKRTVAAPSVFIFPPSDEQLKSGTASVVCLLNNFYPREAKVQWKVDNALQSGNSQESVTEQDSKDSTYSLSSTLTLSKADYEKHKVYACEVTHQGLSSPVTKSFNRGEC	320	22	641	80	3580	4	–	411	90	–
1H3-hIgG1-L6-hIL-2 (D20A/E95A/F42K) (protein) heavy: EVQLVESGGGLVQPGRSLKLSCAVSGFTFSDYAMAWVRQAPKKGLEWVATISYDGSRTYYRDSVKGRFTISRDNAKITLYLQMDSLRSEDTATYYCARHGSGYFDYWGQGVMVTVSS[not shown - human IgG1 constant region]SGGGGSAPTSSSTKKTQLQLEHLLLALQMILNGINNYKNPKLTRMLTKKFYMPKKATELKHLQCLEEELKPLEEVLNLAQSKNFHLRPRDLISNINVIVLALKGSETTFMCEYADETATIVEFLNRWITFCQSIISTLT light: DTVLTQSPALAVSPGERVTISCRASESVRTGVHWYQQKPGQQPKLLIYGASNLESGVPARFSGSGSGTDFTLTIDPVEADDTATYFCQQSWNDPFTFGSGTKLEIKRTVAAPSVFIFPPSDEQLKSGTASVVCLLNNFYPREAKVQWKVDNALQSGNSQESVTEQDSKDSTYSLSSTLTLSKADYEKHKVYACEVTHQGLSSPVTKSFNRGEC	272	21	> 10000	50	> 10000	4	60	82	–	80
